The list shows a part of the results. The main result of the screen is listed elsewhere. These columns were measured beside it and carry no call. The list favours compounds with an active or inconclusive main result. Words in brackets tell the shape of the fitted curve; partial curves, single points and poor fits give uncertain potencies.
target: Catechol O-methyltransferase (Homo sapiens) (UniProt P21964); assay: Confirmatory Screen for Target Class Profiling of Small Molecule Inhibitors of Methyltransferases (AID 1745852); conditions: MTase-Glo luminescence, SAH detection, recombinant enzyme; measured here: COMT inhibition potency;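 further: inhibitor potency for blocking SAH production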
UniProt P21964, sequence (P21964 whole entry, looked up): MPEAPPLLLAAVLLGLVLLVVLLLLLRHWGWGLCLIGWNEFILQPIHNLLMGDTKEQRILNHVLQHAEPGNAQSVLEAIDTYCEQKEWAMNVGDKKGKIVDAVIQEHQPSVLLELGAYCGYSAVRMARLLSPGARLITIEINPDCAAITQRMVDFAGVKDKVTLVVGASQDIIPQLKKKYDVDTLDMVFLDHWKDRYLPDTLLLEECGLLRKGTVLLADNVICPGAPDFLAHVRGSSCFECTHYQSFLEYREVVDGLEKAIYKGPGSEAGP
Tags describe the fitted curve by direction and shape.

Row | Compound | IC50
1 | CC(C)(O)/C=C1/C(=O)C(C)(C)C(=O)C(C)(C)C1(O)O[C@@H]1O[C@H](COC(=O)c2cc(O)c(O)c(O)c2)[C@@H](O)[C@H](O)[C@H]1O (stereo not given in full) | 0.285 µM [falling, full curve]
2 | C/C=C(/C)C(=O)O[C@H]1C=C(CO)C(=O)[C@H](OC(=O)/C(C)=C/CO)[C@H]1C(C)C | 11.9 µM [falling, partial curve]
3 | C=C1C(=O)O[C@@H]2/C=C(\CO)CC/C=C(/C=O)C[C@@H](O)[C@@H]12 | 19.2 µM [falling, partial curve]
4 | C=C1C(=O)O[C@@H]2CC(C)=C([C@@H](C)CCCO)[C@@H](OC(=O)C(C)C)[C@H]12 | 7.48 µM [falling, partial curve]
5 | CC(C)=CCC(O)/C(C)=C/CO[C@@H]1O[C@H](CO)[C@@H](O)[C@H](O)[C@H]1O (stereo not given in full) | 13.3 µM [falling, partial curve]
6 | C[C@@H]1O[C@@H](O[C@H]2[C@H](OC(=O)C34CCC(C)(C)CC3C3=CCC5C6(C)CC(O)C(O[C@@H]7O[C@H](CO)[C@@H](O)[C@H](O)[C@H]7O)C(C)(C(=O)O)C6CCC5(C)C3(CO)CC4)O[C@H](C)[C@H](O)[C@@H]2O)[C@H](O)[C@H](O)[C@H]1O[C@@H]1OC[C@@H](O)[C@H](O)[C@H]1O (stereo not given in full) | 4.58 µM [falling, partial curve]
7 | CC(=O)NC(Cc1c[nH]c2ccccc(=O)c12)C(=O)O (stereo not given) | 15.2 µM [falling, partial curve]
8 | C=C(C(=O)O)C1CC(O)C2(C)CCCC(=C)C2C1 (stereo not given) | 19.2 µM [falling, partial curve]
9 | CC1=CC(=O)CC(C)(C)C1(O)CCC(C)O (stereo not given) | 12.1 µM [falling, partial curve]
10 | COc1cc(C2Oc3c(OC)cc(CCCO[C@@H]4O[C@H](CO)[C@@H](O)[C@H](O)[C@H]4O)cc3C2CO)ccc1O (stereo not given in full) | 2.64 µM [falling, full curve]
11 | C=C[C@H]1[C@H](O[C@@H]2O[C@H](CO)[C@@H](O)[C@H](OC(=O)/C=C/c3ccc(O)c(OC)c3)[C@H]2O)OC=C2C(=O)OCC[C@]21O | 8.35 µM [falling, partial curve]
12 | C/C(=C\CC/C(C)=C/CC[C@]1(C)CCc2cc(O)cc(C)c2O1)CC/C=C(\C)C(=O)O | 16.7 µM [falling, partial curve, poor fit]
13 | COC(=O)C1=CO[C@@H](O[C@@H]2O[C@H](COC(=O)/C=C/c3cc(OC)c(O)c(OC)c3)[C@@H](O)[C@H](O)[C@H]2O)[C@@H]2C(CO)=CC[C@H]12 | 3.2 µM [falling, full curve]
14 | COc1cc(/C=C/C(=O)O[C@H]2[C@@H]3C=CO[C@@H](O[C@@H]4O[C@H](CO)[C@@H](O)[C@H](O)[C@H]4O)[C@@H]3[C@@]3(CO)O[C@@H]23)ccc1O | 8.35 µM [falling, partial curve]
15 | CC(O)(CC(=O)O)CC(=O)OCc1ccc(O[C@@H]2O[C@H](CO)[C@@H](O)[C@H](O)[C@H]2O)cc1 (stereo not given in full) | 6.63 µM [falling, partial curve]
16 | C=CC(C)(O)CC/C=C(\C)COC1O[C@H](CO)[C@@H](O)[C@H](O)[C@H]1O (stereo not given in full) | 3.34 µM [falling, full curve]
17 | COc1c(CCC(=O)O)cccc1O[C@@H]1O[C@H](CO)[C@@H](O)[C@H](O)[C@H]1O | 7.48 µM [falling, partial curve]
18 | O=C(/C=C/c1ccccc1)OC[C@H]1O[C@@H](OC(=O)c2cc(O)c(O)c(O)c2)[C@H](O)[C@@H](O)[C@@H]1O | 0.418 µM [falling, full curve]
19 | O=C(NCCCc1ccccc1)c1cccc(-c2cc(O)c3ncccc3c2)c1 | 6.85 µM [falling, full curve]
20 | C=C1C(=O)OC2C1CCC(=C)C1CC(OC(C)=O)C(=C)C12 (stereo not given) | 19.2 µM [falling, partial curve]

Row | Compound | IC50
21 | COc1cc2c(cc1O)CC[C@H]1[C@@H]2CC[C@]2(C)[C@H](O)CC[C@@H]12 | 12.1 µM [falling, partial curve]
22 | CC(C)CCC1(O)C(=O)C(C)(C)C(O[C@@H]2O[C@H](CO)[C@@H](O)[C@H](O)[C@H]2O)C(C)(C)C1O (stereo not given in full) | 3.32 µM [falling, full curve]
23 | C=C1C(O[C@@H]2O[C@H](CO)[C@@H](O)[C@H](O)[C@@H]2O)CC2C(C)(C)C(O)CCC2(C)C1CC/C(C)=C\CO (stereo not given in full) | 7.44 µM [falling, partial curve]
24 | C=C1C(=O)OC2C(OC(=O)C=C(C)C)C(C)=C3C(=O)C=C(C)C3C(O)C12 (stereo not given) | 10.6 µM [falling, partial curve]
25 | COc1cc(/C=C/c2cc(O)cc(O[C@@H]3O[C@H](CO)[C@@H](O)[C@H](O)[C@H]3O)c2)ccc1O | 10.5 µM [falling, partial curve]
26 | C=C1C(=O)OC2C1CCC1(C)C(O)CCC(=C)C21 (stereo not given) | 9.61 µM [falling, partial curve]
27 | C=C1C(=O)O[C@@H]2C=C(COC(C)=O)CC/C=C(\CO)CC[C@@H]12 | 3.75 µM [falling, full curve]
28 | CC1CCC2(CO)C(C(=O)O)=CCCC2C1(C)CCc1ccoc1 (stereo not given) | 0.942 µM [falling, full curve]
29 | CC1OC(OC2C(OC(=O)[C@]34CCC(C)(C)C[C@H]3C3=CCC5[C@@]6(C)CC[C@H](OC7OC(C(=O)O)C(O)C(O)C7O)C(C)(C)C6CC[C@@]5(C)[C@]3(C)CC4O)OC(CO)C2O)C(O)C(O)C1OC1OCC(O)C(O)C1O (stereo not given in full) | 0.408 µM [falling, full curve]
30 | C/C=C(\C)C(=O)O[C@H]1[C@@H](O[C@]2(COC(=O)CC(C)C)O[C@H](COC(=O)C(C)C)[C@@H](OC(C)=O)[C@@H]2O)O[C@H](COC(C)=O)[C@@H](O)[C@@H]1O | 2.54 µM [falling, partial curve]
31 | COc1ccc(CCNC(=O)c2ccc3c(=O)[nH]c4c(C(=O)NCC5CCCO5)sc(=S)n4c3c2)cc1OC (stereo not given) | 24.1 µM [falling, partial curve]
32 | CC(=O)OC/C=C(\C)C(CC1C(C)=C(OC(C)=O)C(=O)C2C(C)(C)C(O)CCC12C)OC(C)=O (stereo not given) | 8.35 µM [falling, partial curve]
33 | CC1(CO)CC[C@]2(C(=O)O[C@@H]3O[C@H](CO)[C@@H](O)[C@H](O)[C@H]3O)CC[C@]3(C)C(=CCC4[C@@]5(C)C[C@H](O)[C@H](O[C@@H]6OC[C@@H](O)[C@H](O)[C@H]6O)[C@@](C)(CO)C5CC[C@]43C)C2C1 (stereo not given in full) | 4.08 µM [falling, partial curve]
34 | C=C[C@H]1[C@H](O[C@@H]2O[C@H](CO)[C@@H](O)[C@H](O)[C@H]2O)OC=C(C(=O)OC)[C@H]1CCOC(=O)c1cc(O)c(O)c(O)c1 | 0.0373 µM [falling, full curve]
35 | CC(C)(O)C1CC=C(C(=O)OC[C@H]2O[C@@H](Oc3cc(C(=O)O)cc(O)c3O)[C@H](O)[C@@H](O)[C@@H]2O)CC1 (stereo not given in full) | 3.32 µM [falling, full curve]
36 | CC1=CCC(O)C2(C)CCC3C(C)C(=O)OC3C12 (stereo not given) | 15.2 µM [falling, partial curve]
37 | CC(C)c1cc2c(c(O)c1O)[C@@]13CCCC(C)(C)C1[C@@H](O)[C@@H]2OC3=O (stereo not given in full) | 2.98 µM [falling, full curve]
38 | Cc1c(O)cc(O)c2c(=O)c(O)c(-c3ccc(O)c(O)c3)oc12 | 24.1 µM [falling, partial curve]
39 | COc1cc(O)c(C(=O)CCc2ccc(O)cc2)c(O[C@@H]2O[C@H](CO)[C@@H](O)[C@H](O)[C@H]2O)c1 | 3.73 µM [falling, full curve]
40 | C=C(C)C(=O)OC1CC2(C)OC(=CC2=O)C(=C)CC2OC(=O)C(COC)C12 (stereo not given) | 0.53 µM [falling, full curve]

Source: PubChem BioAssay (NCATS)
